Each structure is given as a SMILES string. Among all 48,000 compounds or so, about 550 (1.1%) were called active. Roughly 4% stayed inconclusive and do not appear here. Cut-off read from the data, not from the text of the source: active = potency below about 15 µM; inconclusive = mostly about 16 µM to 33 µM; inactive = weaker than that. The list shows a part of the results. A value given as a limit tells only on which side of the number the result lay.
Potency is the fitted concentration of half-maximal effect.

The target in this experiment is Lysosomal acid glucosylceramidase (Homo sapiens) (UniProt P04062). The experiment is described as follows: Glucocerebrosidase.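 Note: the screen sought inhibitors.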 The note with it: purified enzyme, resorufin glucoside fluorescence (screen aimed at inhibitors), 20 min; series mostly up to 77 µM. The method in brief: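 Normal human glucocerebrosidase (0.2 nM final) was assayed with resorufin β-D-glucopyranoside (30 uM final) in 50mM citric acid/KH2PO4, 10mM sodium taurocholate, 0.01% tween-20, pH 5.9. Compounds were titrated; fluorescence (Ex 548, Em 600) read after 20 min at RT.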
Chain of UniProt P04062 (P04062 whole entry, looked up): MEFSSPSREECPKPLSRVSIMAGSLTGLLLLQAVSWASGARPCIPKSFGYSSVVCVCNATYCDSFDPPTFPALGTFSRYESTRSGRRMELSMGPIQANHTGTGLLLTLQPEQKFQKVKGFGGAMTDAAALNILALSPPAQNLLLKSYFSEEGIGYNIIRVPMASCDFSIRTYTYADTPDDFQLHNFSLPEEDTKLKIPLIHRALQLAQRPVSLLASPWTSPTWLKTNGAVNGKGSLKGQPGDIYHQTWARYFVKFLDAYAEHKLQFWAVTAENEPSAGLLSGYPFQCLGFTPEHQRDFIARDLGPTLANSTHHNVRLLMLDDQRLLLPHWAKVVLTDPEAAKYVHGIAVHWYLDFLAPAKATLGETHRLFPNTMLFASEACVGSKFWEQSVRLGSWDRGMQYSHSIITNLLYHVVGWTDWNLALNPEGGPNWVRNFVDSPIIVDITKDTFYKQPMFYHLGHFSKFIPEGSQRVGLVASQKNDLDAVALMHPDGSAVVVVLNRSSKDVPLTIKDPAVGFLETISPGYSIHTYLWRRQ
For `CC(C)(C)Cc1nnc(NS(=O)(=O)c2ccc(F)cc2)s1`, the Potency is inactive: > 76.9 µM.

In the case of `CCOc1ccc(S(=O)(=O)N(CC(=O)O)c2ccc(C)cc2)cc1`, the Potency is inactive: > 76.9 µM.

As for `Cc1nc2nc(-c3ccccc3)cn2nc1C`, the Potency was inactive: > 76.9 µM.

For the molecule `O=C(O)CCOc1ccc2c(c1)OCCO2`, the Potency was inactive: > 76.9 µM.

With `CC1=CC(C)(C)N=C(NC#N)N1`, the Potency is inactive: > 76.9 µM.

As to `N#CCCn1cnc2ccccc21`, the Potency is inactive: > 76.9 µM.

With `CC(C)C(NC(=O)c1ccccc1)C(=O)NCc1ccccn1` (stereo not drawn), the Potency is inactive: > 76.9 µM.

Regarding `COc1ccc(S(=O)(=O)CCC(=O)Nc2c(C)n(C)n(-c3ccccc3)c2=O)cc1`, the Potency is inactive: > 76.9 µM.

In the case of `Cc1ccc(CC(=O)NCC(C)C)cc1`, the Potency is inactive: > 76.9 µM.

Turning to `Cc1ccc(C)c(N=C2NC(=O)CS2)c1`, the Potency was inactive: > 76.9 µM.

With `O=C(Nc1ccc(OC(=O)c2cccs2)cc1)c1ccco1`, the Potency is inactive: > 76.9 µM.

Turning to `O=C(Nc1ccc(-c2nc3ccccc3o2)cc1)c1ccc2c(c1)OCO2`, the Potency was inactive: > 76.9 µM.

Turning to `Cc1ccc2c(c1)NC(=O)C(N1CCOCC1)(C(F)(F)F)O2` (stereo not drawn), the Potency was inactive: > 76.9 µM.

For the molecule `CC1(C)NC(=O)N(CC(O)COc2ccccc2-c2ccccc2)C1=O` (stereo not drawn), the Potency is inactive: > 76.9 µM.

Consider `CS(=O)(=O)N1CCC(C(=O)Nc2cc(C(F)(F)F)ccc2Cl)CC1`, for which the Potency was inactive: > 76.9 µM.

With `CCOC(=O)N1CCN(c2c(N3CCN(c4cccc(C(F)(F)F)c4)CC3)c(=O)c2=O)CC1`, the Potency was inactive: > 76.9 µM.

Regarding `CS(=O)(=O)NCc1ccc(C(=O)NCc2ccccc2)cc1`, the Potency is inactive: > 76.9 µM.

As to `CCOc1ccc(-c2nnc(N)o2)cc1`, the Potency was inactive: > 76.9 µM.

As to `O=C(CCN1C(=O)c2ccccc2C1=O)N1CCN(c2ccccc2)CC1`, the Potency is inactive: > 76.9 µM.

As to `COc1ccc(-c2nc(C#N)c(NCc3ccc(C)cc3)o2)cc1OC`, the Potency was inactive: > 76.9 µM.

On to `CCCCN(C(=O)Cn1nnc2ccccc21)C(C(=O)NCCOC)c1ccc(OC)cc1` (stereo not drawn), for which the Potency is inactive: > 76.9 µM.

Take `C/C(N)=N\S(=O)(=O)c1ccc(Cl)cc1`: the Potency is inactive: > 76.9 µM.

Take `CCOC(=O)C(C(C)=O)c1c(Br)c(O)c(O)c2c(C(=O)c3ccc(C)cc3)coc12` (stereo not drawn): the Potency is inactive: > 76.9 µM.

In the case of `COc1cccc(-n2nnc3c(=O)n(CC(=O)N4CCC(Cc5ccccc5)CC4)cnc32)c1`, the Potency is inactive: > 76.9 µM.

Take `Cn1c(=O)c2c(nc(Br)n2C)n(C)c1=O`: the Potency was inactive: > 76.9 µM.

Consider `CCCCn1c(C(C)NC(=O)c2cccs2)nc2ccccc21` (stereo not drawn), for which the Potency entry is “inactive”.

`O=C1CCCN1CN(C(=O)c1ccccc1)c1ccc(F)cc1`: the Potency is inactive: > 76.9 µM.

For `N#Cc1ccccc1Sc1ccccc1C(=O)OCC(=O)N1CCN(C(=O)c2ccco2)CC1`, the Potency was inactive: > 76.9 µM.

Take `O=C(Nc1ccc2c(c1)OCCO2)C1CCN(C(=O)c2ccc(Br)cc2)CC1`: the Potency is inactive: > 76.9 µM.

Take `O=C(COc1ccc(S(=O)(=O)NCc2ccccc2)cc1)NCC1CCCO1` (stereo not drawn): the Potency was inactive: > 76.9 µM.

Turning to `Cc1noc(C)c1COC(=O)CCCOc1ccc(Cl)cc1Cl`, the Potency was inactive: > 76.9 µM.

Consider `COc1ccc(CNC(=O)C2CCCN2S(=O)(=O)c2ccc(C)cc2)cc1` (stereo not drawn), for which the Potency is inactive: > 76.9 µM.

On to `O=C(O)C(F)(F)S(=O)(=O)O`, for which the Potency was inactive: > 76.9 µM.

For the molecule `c1ccc(-c2cnn3nnnc3n2)cc1`, the Potency is inactive: > 76.9 µM.

Regarding `O=C(COC(=O)CCc1nc2ccccc2s1)Nc1ccc(S(=O)(=O)N2CCOCC2)cc1`, the Potency was inactive: > 76.9 µM.

Take `COc1ccc2c(c1)C(=O)N(c1ccccc1OC)C(=O)C2(C)C`: the Potency was inactive: > 76.9 µM.

Consider `C#CCOc1ccc2c(C)cc(=O)oc2c1`, for which the Potency was inactive: > 76.9 µM.

Regarding `Cn1cnnc1SCc1ccc(-c2ccc(Br)cc2)o1`, the Potency was inactive: > 76.9 µM.

For the molecule `CC(=O)Nc1cccc(NC(=O)Nc2ccc(C(C)=O)cc2)c1`, the Potency was inactive: > 76.9 µM.

As to `COC(=O)CNC(=O)c1ccc2c(c1)S(=O)(=O)c1ccccc1C2=O`, the Potency is inactive: > 76.9 µM.

As for `CCCS(=O)(=O)N1CCN(C(=O)c2cc(OC)cc(OC)c2)CC1`, the Potency is inactive: > 76.9 µM.

`CCOc1ccc(N2CC(C(=O)Oc3ccccc3)CC2=O)cc1` (stereo not drawn): the Potency was inactive: > 76.9 µM.

Regarding `ON1C(c2ccccc2C(F)(F)F)N(O)[C@H]2CCCC[C@H]21` (stereo partly drawn), the Potency is inactive: > 76.9 µM.

In the case of `Cc1csc(NC(=O)CSc2nnc(-c3ccoc3C)o2)n1`, the Potency is inactive: > 76.9 µM.

Consider `CCCCNC(=O)CC1N=C2c3ccccc3N=C(SCC(=O)Nc3ccccc3C)N2C1=O` (stereo not drawn), for which the Potency is inactive: > 76.9 µM.

As for `Cc1ccc(CS(=O)(=O)CCC(=O)NCCCOC(C)C)cc1`, the Potency was inactive: > 76.9 µM.

Regarding `CCn1cc(C(=O)N2CCN(C3CCCCC3)CC2)c2cc(OC)c(OC)cc2c1=O`, the Potency is inactive: > 76.9 µM.

Consider `CC1Cn2c(CCc3ccccc3)nnc2S1` (stereo not drawn), for which the Potency is inactive: > 76.9 µM.

`CCOC(=O)Nc1ccc(C(=O)NCC2CCCO2)cc1` (stereo not drawn): the Potency was inactive: > 76.9 µM.

In the case of `Cn1c(SCC(=O)N2CCOCC2)nc2cccnc21`, the Potency was inactive: > 76.9 µM.

As to `Cn1c(SCC(=O)Nc2cccc(O)c2)nnc1-c1ccc(S(=O)(=O)N2CCOCC2)cc1`, the Potency is inactive: > 76.9 µM.

With `CCn1c2ccccc2c2nnc(SCC(=O)Nc3ncccn3)nc21`, the Potency is inactive: > 76.9 µM.

As to `Cc1ccc(NC2=Nc3ccccc3CS2)cc1`, the Potency is inactive: > 76.9 µM.

For the molecule `COc1ccc(N2C(=O)CC(N3CCN(S(=O)(=O)c4c(F)cccc4F)CC3)C2=O)cc1OC` (stereo not drawn), the Potency was inactive: > 76.9 µM.

In the case of `O=C(NS(=O)(=O)c1ccccc1Cl)c1ccc[nH]1`, the Potency was inactive: > 76.9 µM.

Take `CCn1c(=O)cc(O)c2c(=O)n(C)c(=O)n(C)c21`: the Potency was inactive: > 76.9 µM.

Take `C=C(C)c1cccc(C(C)(C)NC(=O)N2CC(C)OC(C)C2)c1` (stereo not drawn): the Potency was inactive: > 76.9 µM.

Turning to `Cc1ccc(NC(=O)CCNS(=O)(=O)c2ccc3c(c2)oc(=O)n3C)cc1`, the Potency was inactive: > 76.9 µM.

Consider `CSc1nc(-c2ccco2)nn1S(C)(=O)=O`, for which the Potency was inactive: > 76.9 µM.

Regarding `COc1ccc(-n2c(=O)[nH]cc(C(=O)Nc3ccc(NC(C)=O)cc3)c2=O)cc1`, the Potency was inactive: > 76.9 µM.

For `CCCNc1nc2c(c(=O)n(C)c(=O)n2C)n1CCC(C)C`, the Potency is inactive: > 76.9 µM.

`Cc1ccc(NC(=O)CCSc2nnc(-c3ccco3)o2)cc1`: the Potency was inactive: > 76.9 µM.

As for `CC(=O)N1CCC(C(=O)Nc2ccccc2)(N(Cc2ccccc2)C(=O)c2cccnc2)CC1`, the Potency is inactive: > 76.9 µM.

Consider `O=C(CCCNS(=O)(=O)c1cccc2nsnc12)NCc1ccc(Cl)cc1`, for which the Potency was inactive: > 76.9 µM.

As for `COc1ccc(NC(=O)c2ccco2)cc1NC(=O)c1ccc(Br)o1`, the Potency was inactive: > 76.9 µM.

In the case of `FC(F)(F)c1cccc(N2Cc3ccccc3C2)c1`, the Potency was inactive: > 76.9 µM.

Consider `O=C(O)CC1CCC(=C(Cl)Cl)C1` (stereo not drawn), for which the Potency is inactive: > 76.9 µM.

On to `COc1ccccc1NC(=O)Cc1cccs1`, for which the Potency is inactive: > 76.9 µM.

`CCOC(=O)NC(=O)CSc1nc2ccc(OCC)cc2[nH]1`: the Potency is inactive: > 76.9 µM.

As for `COc1ccc2oc(C(=O)C3CC3)c(N)c2c1`, the Potency is inactive: > 76.9 µM.

Turning to `COCCNC(=O)COc1ccc(Nc2ccccc2)cc1`, the Potency was inactive: > 76.9 µM.

Turning to `Cc1ccc(NC(=O)CSc2nc3nc(C)cc(C)c3c(=O)[nH]2)cc1`, the Potency is inactive: > 76.9 µM.

Consider `O=C(O)CCSc1nnnn1-c1ccccc1`, for which the Potency is inactive: > 76.9 µM.

`Cc1ccc(C(=O)C2=C(O)C(=O)N(CCN(C)C)C2c2ccccn2)o1` (stereo not drawn): the Potency is inactive: > 76.9 µM.

Regarding `CCCCCc1c(O)nc(SCC(=O)NCC2CCCO2)[nH]c1=O` (stereo not drawn), the Potency is inactive: > 76.9 µM.

For `Cc1nc(CC(=O)O)c(-c2ccccc2)s1`, the Potency was inactive: > 76.9 µM.

`Cc1cc(-n2c(C)cc(C(=O)CSc3nc4ccccc4c(=O)n3Cc3ccco3)c2C)no1`: the Potency is inactive: > 76.9 µM.

Turning to `O=C(CCC1COc2ccccc2O1)NCC1COc2ccccc2O1` (stereo not drawn), the Potency was inactive: > 76.9 µM.

Regarding `Cc1cccc(N(CC(=O)NCc2ccco2)C(=O)CCC(=O)Nc2ccccn2)c1`, the Potency is inactive: > 76.9 µM.

On to `COc1ccc(CC(=O)NCc2cn3ccsc3n2)cc1`, for which the Potency was inactive: > 76.9 µM.

`COc1ccc(-c2cc(-c3c(O)c(OC)c4occc4c3OC)[nH]n2)cc1OC`: the Potency is inactive: > 76.9 µM.

For `O=C1NC(Cc2c[nH]c3ccccc23)C(=O)N1CCOc1ccccc1` (stereo not drawn), the Potency is inactive: > 76.9 µM.

`c1ccc(-c2noc(-c3ccco3)n2)nc1`: the Potency was inactive: > 76.9 µM.

`CCOC(=O)c1c(C)c(C(=O)NCc2ccco2)c(C)n1Cc1ccccc1`: the Potency was inactive: > 76.9 µM.

As for `COc1ccc(C2C3=C(CC(C)(C)CC3=O)Oc3ncn(CCCn4ccnc4)c(=N)c32)cc1` (stereo not drawn), the Potency was inactive: > 76.9 µM.

Take `COc1ccc(-c2nnc3n2N=C(c2ccccc2)CS3)cc1OC`: the Potency was inactive: > 76.9 µM.

Regarding `COc1ccc(NC(=O)C2C3CCC(C3)C2C(=O)O)cc1OC` (stereo not drawn), the Potency was inactive: > 76.9 µM.

Consider `O=C(Cn1nc(-c2ccc(Cl)cc2)ccc1=O)NCCCN1CCN(Cc2ccccc2)CC1`, for which the Potency is inactive: > 76.9 µM.

As to `COCCn1c(-c2ccc(OC)cc2)cnc1SCC(=O)Nc1cc(C)on1`, the Potency was inactive: > 76.9 µM.

Turning to `COC(=O)c1sccc1NC(=O)Cn1cnc2c1c(=O)n(C)c(=O)n2C`, the Potency was inactive: > 76.9 µM.

For the molecule `CCOC(=O)C1CCCN(C(=O)COC(=O)c2cc(=O)c3ccccc3o2)C1` (stereo not drawn), the Potency is inactive: > 76.9 µM.

Regarding `Cc1cc(C)nc(Nc2ccccc2Br)n1`, the Potency is inactive: > 76.9 µM.

Turning to `N=c1n(Cc2ccccc2)c2ccccc2n1CC(O)c1ccco1` (stereo not drawn), the Potency is inactive: > 76.9 µM.
